This passage reports self-cleavage results from the RNAGym collection of RNA variant scans (doi:10.7554/elife.90254).

The source gives no read counts; variants with many changes may rest on few reads.

To fix the notation:
B1: LINE1-mini (parent)
chain: GGCAGAGCUCAACACAGCGUGGCAAAGUGGCUGUGGCUAGACUGCC

The variants in the data set derive from B1. Put plainly: self-cleavage, relative activity (ratio to wild type); higher = more cleavage; in vitro, sequencing; the parent is a self-cleaving ribozyme.
For U9C A11C A26U G40U G44A, the self-cleavage amounted to 0.
Then U9C A12G A26G C42U, with 0; and U9A C10U A11G A16C C23U A41U, with 0; and U9A C23U A24U G36U, with 0.15.
Then U9A A14G C18A U43C G44C, with 0.02; and U9C A16U C31A C37U, with 0.01.
The figure for U9A A14G A26C is 0.02; for U9A G22U A39C it is 0.01; for U9C A26C G27C C46A it is 0.01.
For U9C A14G A39U C42U C45G, the self-cleavage is 0.
As for U9A A39C C42A, the self-cleavage amounted to 0.06.
The figure for U9A C18A C31A is 0.1; for U9A G36A C45A it is 0.16; for U9A C10G U20C it is 0.01.
The figure for U9C C10A A25C is 0.01; for U9A C10G C15A C31A C45A it is 0.03; for U9A C10A G19U C23U C31A U34G G40A it is 0.01.
Then U9C A26C A41C, with 0.05; and U9A U20A G40A, with 0.13.
In the case of U9A U32G U34A A39U, the self-cleavage was 0.02.
Then U9C A12G C15A C18U C23G C42A, with 0; and U9A G22A U43G, with 0.37.
The figure for U9A C13U G40C C46U is 0.13; for U9A G19C A24C G30A U32A C45G it is 0.05.
Regarding U9A U34G G40A, the self-cleavage stood at 0.18.
The figure for U9A G30A A39G is 0.08; for U9C A12C G22C it is 0.03.
Consider U9A G35U C37U, for which the self-cleavage came to 0.22.
The figure for U9C A11C C18G G21U is 0.05; for U9A C10G A24C C37U it is 0.
For the variant U9A C10U C46G, the self-cleavage is 0.03.
Then U9A C10A U20C C31G, with 0.03; and U9A A14G G40U G44U, with 0.45; and U9A C15A G19C C23A C37G, with 0.09.
The figure for U9A A26C U34A is 0.03; for U9A C10U G36C C46G it is 0.02.
The figure for U9A G19A G22A is 0.15; for U9A C18G A25C it is 0.06.
In the case of U9A A12U G17A U32G, the self-cleavage was found to be 0.04.
Then U9A C31G U38G C45U, with 0.
The figure for U9A C18U U38A is 0.13.
The figure for U9A C18A U20C G40U is 0.03; for U9A G29U G30C it is 0.03.
For U9A G17C G19A U28A A39C, the self-cleavage worked out at 0.28.
The figure for U9C A26C G30A U38A is 0.03.
Then U9A G19U U38A, with 0.01; and U9A C18U U34A, with 0.04.
Then U9C A12G G40U, with 0; and U9A C10A U34A A39G, with 0.01.
In the case of U9A U34C U43A C45A, the self-cleavage was 0.22.
In the case of U9A C10A G35C U43A, the self-cleavage stood at 0.01.
Then U9A A24C G30C C37U U43A, with 0.3; and U9A G27U C46G, with 0.13; and U9A C13U G27U, with 0.1.
The figure for U9C A14G C18A G21A C31A is 0.04.
Then U9A G22A G29C U32A G35U G44U C45U, with 0.18.
For U9A G19U G21C A39U C46U, the self-cleavage came out at 0.05.
Then U9A A14G C46A, with 0.03; and U9A U28C G29U C37A, with 0.08.
For the variant U9A C18U C37G C46A, the self-cleavage was found to be 0.
Turning to U9A C18U U20C G21A U28C, the self-cleavage came out at 0.04.
For the variant U9A A14U G33U C45G, the self-cleavage was determined as 0.01.
As to U9A C15U A24U, the self-cleavage was found to be 0.03.
Consider U9A A24C G35C G36U U38C C45U, for which the self-cleavage came out at 0.03.
Then U9A G33A G36U C46A, with 0.04; and U9A U28A G44C, with 0.04; and U9A G17A G22U G29U, with 0.01.
Then U9A U28A G33C, with 0.04; and U9A C18A G33A G35C, with 0.08; and U9A C10U A12G A25U G30C U34A, with 0.01.
U9A C18G G22C G27C G29A: the self-cleavage worked out at 0.03.
The figure for U9A C13A A14U A41C C42U is 0.18; for U9C C10A A14G G27U U32A it is 0.04; for U9A C10U G22C G27C C31A G33C C42G U43C it is 0.03.
Then U9A G19C G30U U32A G35U, with 0.16; and U9A C13U A14G G19C C46U, with 0.
Then U9A A14G G33A, with 0.01; and U9C A26C U28A G30C G35U G40A, with 0.23; and U9A C15A G40U, with 0.15.
For the variant U9A G27A G35U, the self-cleavage turned out to be 0.46.
Regarding U9A U28A C37U, the self-cleavage came out at 0.17.
The figure for U9A C10G C23U A26C G29U A39C is 0.01.
Then U9A C18G G35C, with 0.05; and U9A A12U C45A C46U, with 0.14.
Then U9A G33A G35U G36A, with 0.07; and U9A G21C G27U G35A C37G A39C, with 0.17.
On to U9A G17A C31A, for which the self-cleavage was 0.01.
The figure for U9A A14U G30U U34A C42U is 0.01.
The figure for U9C A12C G21A G22A is 0.01; for U9A A12G C18U A25C it is 0.01.
The figure for U9A G27C G29C is 0.02; for U9C A41U G44A it is 0; for U9A C15A A24G G33U C42G it is 0.22.
As for U9A A12G C45A, the self-cleavage was 0.01.
Consider U9A G19C G22A U34G, for which the self-cleavage turned out to be 0.04.
The figure for U9A C13U C15U C37A is 0.31.
Then U9A U28A G30U U32G A39C, with 0.01.
Then U9C A12C C23G G30U A39C, with 0.01; and U9A A16C G17C U20A, with 0.06.
U9A C18G A41U: the self-cleavage is 0.13.
Then U9A C23U A25U, with 0.19; and U9A G22A G44C, with 0.07.
The figure for U9C A11U G36U C42G C46G is 0.01; for U9C A26C U28A U38A it is 0.03.
Then U9C A12G G17U, with 0.01.
Regarding U9A U32G G33A, the self-cleavage worked out at 0.23.
On to U9C A24C A26G, for which the self-cleavage turned out to be 0.01.
With U9A U20C C23U G36U, the self-cleavage amounted to 0.03.
Then U9A A25G C31G, with 0.22; and U9A G30A U32C A39G, with 0.13.
U9A G30A C46G: the self-cleavage amounted to 0.06.
On to U9A G17U A26U, for which the self-cleavage was 0.01.
Then U9C C10A A11C, with 0.02.
Then U9A G22C U28G, with 0.04; and U9A A12G G17A U28C, with 0.
The figure for U9C A11G A41C is 0.02.
U9A G17U G19A G27A G36A: the self-cleavage was determined as 0.58.
Take U9C A14U A16U C45G: the self-cleavage was 0.05.
As to U9C A12U G19A, the self-cleavage was 0.05.
The figure for U9A G36A A41C C45G is 0.03; for U9A A12U G21U G22A it is 0.05.
Then U9A A16U G17A, with 0.02; and U9C A16C G19A, with 0.01; and U9A A12C A39C, with 0.02.
The figure for U9A A12U C15A A41C G44U is 0.02.
For U9A C23A U43C, the self-cleavage came to 0.06.
Then U9A A12U C15U, with 0.3; and U9A G21A G30U C31U A41G G44A, with 0.03.
On to U9C C10A A12U G36A U38G, for which the self-cleavage was 0.01.
Consider U9A A12U C13U C15U A24G A41C, for which the self-cleavage was 0.1.
Then U9A C23U C31A, with 0.07; and U9C A25G U38A C46A, with 0; and U9C A25C A41U, with 0.02.
Then U9A C13G G30A U43A C46U, with 0.28; and U9A C18G U20A U34C U38G G40U, with 0.05; and U9C A11U U38A, with 0.01.
U9A G21U G35A A39C G44U: the self-cleavage turned out to be 0.02.
With U9A A14U C42G C46U, the self-cleavage worked out at 0.21.
Then U9C A12U C15U, with 0; and U9A A16U G30A U38G U43A, with 0.1.
The figure for U9C A12C A14C is 0; for U9C A14G G27A it is 0.05.
The figure for U9A C13G A16C U28A is 0.05; for U9A A26C U28A G33U A41C U43C it is 0.04.
For U9A A14G C18A G21U G33A C37G, the self-cleavage was found to be 0.03.
Then U9A C37G C46U, with 0.05.
With U9C A14G G17U C18A A26C U34G C46A, the self-cleavage was 0.
Turning to U9C A26G U32C G36U C46G, the self-cleavage came to 0.01.
The figure for U9A C18G U43A is 0.01.
As to U9A U34C A39G, the self-cleavage was determined as 0.06.
The figure for U9A C18G U38C C42G C45A is 0.05; for U9A G29C C46U it is 0.06.
Then U9A A24U C46G, with 0.08; and U9A C10A G40A, with 0.05.
Consider U9C A14G A16G U20G U38G, for which the self-cleavage worked out at 0.01.
The figure for U9A C10U G29C C31U G40C is 0.03.
With U9A A26C U32A, the self-cleavage was found to be 0.03.
Then U9A C15A U38C G40A C46U, with 0.08; and U9A U32G G44A C45A, with 0.08; and U9C C10A C13A A14C, with 0.03.
For the variant U9A U28G C37U C45A, the self-cleavage turned out to be 0.23.
The figure for U9A G22U C46A is 0.2.
Then U9A G21A U34G, with 0.08; and U9A C23G C42A U43C, with 0.08.
Then U9A C13U C15A G40U, with 0.08; and U9A G17C C18U C23U, with 0.02.
Consider U9A G17A C23A, for which the self-cleavage was found to be 0.04.
